Assay results taken from PubChem BioAssay AID720523 (National Center for Advancing Translational Sciences (NCATS), 2013).
The whole screen tested about 1,400 compounds, of which about 25 (2%) were called active. This list was built around the results that the source calls inconclusive (neither active nor inactive); the mix of calls is not that of the screen. The call rests on the fitted dose curve; in most records, active means well fitted inhibition curve with a large enough effect; inconclusive means small, poorly fitted or top-dose-only effect; inactive means flat fitted curve, though single readings scatter. Potencies beside an inconclusive call are fits to weak or partial responses and may not hold up.

test: Nrf2 qHTS screen for inhibitors: A549 ARE-Fluc Cytotoxicity Counterscreen for Hit Validation; details: A549 ARE-Fluc cells; series mostly up to 46.1 µM
Source text: Nrf2 is a transcription factor that maintains cellular redox homoestasis and protects cells from xenobiotics. Nrf2 binds to the antioxidant response element (ARE) to induce gene expression of a broad spectrum of genes that encode for antioxidants. […] Finding a small molecule that act as an inhibitor of Nrf2 function would represent a novel therapeutic target that could lead to improvement in survival of patients undergoing chemo- and/or radio- therapy.
In collaboration with the Biswal laboratory, a cell based, luminescence assay (BugLite) was developed to detect the Nrf2 activity using the A549 ARE_Fluc cells (AID 504648). This assay was coupled with a fluorescence based (CellTiter Fluor) cytotoxicity assay to identify and exclude toxic compounds. This coupled assay was used to evaluate selected compounds for hit validation. The data herein is the result of the CellTiter Fluor assay where decrease in fluorescence signal = cytotoxicity. Inactivity is the desired outcome for this assay.
NIH Chemical Genomics Center [NCGC]
NIH Molecular Libraries Probe Centers Network [MLPCN]
Assay Submitter (PI): Shyam Biswal, Johns Hopkins University
[1] Shibata T., et al., Genetic alteration of Keap1 confers constitutive Nrf2 activation and resistance to chemotherapy in gallbladder cancer. Gastroenterology, 2008.
[2] Sjoblom T., et al., The consensus coding sequences of human breast and colorectal cancers. Science, 2006.
Five uL of cell suspension was dispensed into 1536-well white TC-treated plate using the Kalypsys dispenser to achieve a density of 5000 cells/well in all columns except column 1. The plates were incubated at 37deg C at 5% CO2 for 2 hours before 23 nL of compounds were added with the Kalypsys pin tool equipped with a 1,536-pin array. The control compounds Budesonide and Staurosporine were added at a concentration of 2mM. Budesonide was also added as a 1:10 titration, starting at 200uM, to achieve the dose-response control signal. The plates were incubated for 18-24 hour at 37deg C, 5% CO2 followed by a 5ul addition of 5% FBS OPTI-MEM growing media in column 1 as negative control. One microliter of 5x CellTiter Fluor (Promega) was added to each well and the assay plates were incubated at 37deg C, 5% CO2 for 30 minutes. The fluorescence signal was read using the PerkinElmer ViewLux plate reader (Ex = 405 nm /Em = 525 nm) for a 3 second exposure. After the signal was taken, 3 uL of 3x BugLite was dispensed into all wells. The plates were then incubated at room temperature for 15 minutes. A second ViewLux read (40 sec exposure) was performed to detect the luminescence signal. Cytotoxicity was assessed through the first fluorescent read while biochemical activity against Nrf2 was measured in the luminescent read. The data was normalized to the positive and negative controls.
Potency means the concentration at half of the fitted maximal effect; tags describe the fitted curve by direction and shape.

| SMILES | Potency |
| --- | --- |
| O=[N+]([O-])c1ccc(O)c(-c2nc(-c3ccccc3)c(-c3cccs3)[nH]2)c1 | inconclusive: 29.1 µM [inhibitor, single point] |
| COc1ccc(C)cc1NC(=O)CSc1ccc(-c2sc(C)nc2C)nn1 | inactive |
| CC(C)(C)c1ccc(S(=O)(=O)Nc2ccc(Cc3ccncc3)cc2)cc1 | inconclusive: 0.058 µM [inhibitor, full curve, poor fit] |
| O=S(=O)(Nc1cc(Br)cc2cccnc12)c1cccc2ccccc12 | inconclusive: 16.4 µM [inhibitor, single point] |
| CC(C)c1ccccc1-n1c(SCC(=O)N2CCc3ccccc3C2)nc2ccccc2c1=O | inconclusive: 29.1 µM [inhibitor, single point] |
| Cc1cc(C)c(CN2CCN(C(=O)Cn3cnc4c(NCc5ccccc5)ncnc43)CC2)c(C)c1 | inconclusive: 0.259 µM [inhibitor, full curve] |
| CC(C)c1ccc(-n2c(-c3ccccc3)c[n+]3c2CCc2ccccc2-3)cc1 | inconclusive: 14.6 µM [inhibitor, partial curve] |
| COc1ccc(-c2nc(CSCC(=O)N3CCN(c4cc(Cl)ccc4C)CC3)c(C)o2)cc1 | inconclusive: 29.1 µM [inhibitor, single point] |
| CC1CC2(C)C(=CC1=O)CCC1C2C(O)CC2(C)C1CCC2(O)C(=O)CO (stereo not given) | inactive |
| C[C@H]1CCC/C=C/[C@@H]2C[C@H](O)C[C@H]2[C@H](O)[C@H](S(=O)c2ccc(O)cc2)CC(=O)O1 (stereo not given in full) | inconclusive: 0.366 µM [inhibitor, full curve] |
| Fc1ccc(NC(=S)N2CCCN(c3ccc(C(F)(F)F)cn3)CC2)c(F)c1 | inactive |
| CCCN(CCC)S(=O)(=O)c1ccc(C(=O)Nc2nnc(-c3cccc(OC)c3)o2)cc1 | inconclusive: 13 µM [inhibitor, partial curve] |
| COc1ccc(CN(C)Cc2nc(Cc3cccc(F)c3)no2)c2cccnc12 | inactive |
| C[C@H]1O[C@@H](O[C@H]2[C@@H](O)C[C@H](O[C@H]3[C@@H](O)C[C@H](O[C@H]4CC[C@@]5(C)[C@H](CC[C@@H]6[C@@H]5C[C@@H](O)[C@]5(C)[C@@H](C7=CC(=O)OC7)CC[C@]65O)C4)O[C@@H]3C)O[C@@H]2C)C[C@H](O)[C@@H]1O | inconclusive: 0.103 µM [inhibitor, full curve] |
| Cc1ccc(NC(=O)C2CCCN(C(=O)c3ccc(Cl)cc3)C2)cc1S(=O)(=O)N1CCOCC1 (stereo not given) | inactive |
| CCOC(=O)c1cnc2ccc(OCC)cc2c1NCCc1ccc(OC)c(OC)c1 | inconclusive: 16.4 µM [inhibitor, single point] |
| CCOC(=O)c1cc2c(=O)n3ccccc3nc2n(CCOC)c1=NC(=O)c1c(-c2c(F)cccc2Cl)noc1C | inactive |
| Cc1nc2c(-c3ccccc3)c(C)[nH]n2c(=O)c1Cc1ccc(C(C)C)cc1 | inactive |
| Cc1ccccc1-n1ncc2c(SCC(=O)NC3CCCC3)ncnc21 | inactive |
| O=C(Nc1ccc(Oc2ccccc2)cc1)c1cnc2n(c1=O)CCS2 | inactive |
| S=C(NCc1ccccc1)Nc1cccc2cnccc12 | inactive |
| CC(=O)Nc1ccccc1OCC(=O)c1cc(C)n(Cc2cccs2)c1C | inactive |

| SMILES | Potency |
| --- | --- |
| CC1CCc2nc(-c3cc4ccc(O)cc4oc3=O)sc2C1 (stereo not given) | inactive |
| CCCN(c1ccc(C(C)C)cc1)S(=O)(=O)c1c(C)[nH]c(=O)[nH]c1=O | inactive |
| CCn1cc(/C=C/c2cc[n+](C)cc2)c2ccccc21 | inconclusive: 10.3 µM [inhibitor, partial curve] |
| CCOc1ccc(S(=O)(=O)N(C(C)=O)c2ccc3oc(C)c(C(=O)OC)c3c2)cc1 | inactive |
| CCN1/C(=C/c2ccc3cc(C)ccc3[n+]2CC)Sc2ccccc21 | active: 5.8 µM |
| COc1ccc(CC(=O)Nc2cc(S(=O)(=O)N3CCCCC3)ccc2C)cc1OC | inactive |
| N#Cc1nc(-c2ccco2)oc1N1CCN(c2cccc(Cl)c2)CC1 | inconclusive: 29.1 µM [inhibitor, single point] |
| COc1cc([N+](=O)[O-])cc(/C=N/NC(=O)c2ccc(NC(=O)c3ccc(C)cc3)cc2)c1O | inconclusive: 13 µM [inhibitor, partial curve] |
| CCCCCCCCCCCCCCCC[n+]1ccc(/C=C/c2c[nH]c3ccccc23)cc1 | inconclusive: 20.6 µM [inhibitor, single point] |
| COC(=O)C1=C(O)C(C(=O)OC)C(c2ccc(C)cc2)C(C#N)(C#N)C1c1ccc(C)cc1 (stereo not given) | inconclusive: 16.4 µM [inhibitor, partial curve] |
| CCCn1c(NC(=O)c2cccc(S(=O)(=O)N3CCCC3)c2)nc2ccccc21 | inconclusive: 14.6 µM [inhibitor, partial curve] |
| CCc1ccc2[nH]c(=O)c(CN(Cc3ccccc3)C(=O)Nc3ccccc3OC)cc2c1 | inactive |
| CCOC(=O)N1CCN(C(=O)c2ccc(Cn3c(=S)[nH]c4ccc(Br)cc4c3=O)cc2)CC1 | inconclusive: 14.6 µM [inhibitor, partial curve] |
| CCOC(=O)c1cnc(-n2nc(C)cc2C)nc1NNc1cc(C)nc(-c2ccccc2)n1 | inactive |
| C[C@]12CCC(=O)C=C1CC[C@@H]1[C@@H]2[C@@H](O)C[C@@]2(C)[C@H]1CC[C@]2(O)C(=O)CO | inconclusive: 0.116 µM [inhibitor, full curve] |
| Nc1nc(Cl)nc2c1ncn2[C@H]1C[C@H](O)[C@@H](CO)O1 | inactive |
| COCC(C)n1c(-c2ccc3c(c2)NC(=O)CO3)csc1=Nc1ccc(OC(F)F)cc1 (stereo not given) | inactive |
| CN(Cc1ccccc1)C1=CC(=[N+]2CCCC2)CC(C)(C)C1 | inconclusive: 23.1 µM [inhibitor, single point] |
| COc1ccc(Cl)cc1NC(=O)c1cc2c(=O)n3ccccc3nc2s1 | inconclusive: 16.4 µM [inhibitor, single point] |
| Cc1cc(O)c2c(c1O)C(=O)[C@]13C(=C2O)C(=O)[C@@H]2[C@@H](O)[C@H]1[C@@H]1[C@H](O)[C@H]3C(=O)C3=C(O)c4c(O)cc(C)c(O)c4C(=O)[C@]312 | inconclusive: 9.2 µM [inhibitor, partial curve] |
| O=C1c2ccccc2-n2c1nc1ccccc1c2=O | active: 16.4 µM |
| COc1ccc(-c2nc(CSCC(=O)N3CCN(c4ccc(OC)cc4)CC3)c(C)o2)cc1 | inactive |

| SMILES | Potency |
| --- | --- |
| O=C(NCc1cccs1)c1nc2c(nnn2Cc2ccccc2Cl)c(=O)[nH]1 | inconclusive: 3.66 µM [inhibitor, full curve] |
| CN(CCc1ccccc1)C(=O)c1ccc(NC(=O)Cc2ccc(NC(=O)C3CCCN(C(=O)CCc4ccccc4)C3)cc2)cc1 (stereo not given) | inactive |
| CCN1CCS/C1=C\C=C\C1=[N+](CC)CCS1 | inconclusive: 10.3 µM [inhibitor, single point] |
| CCCC[n+]1c(/C=C/c2c(OC)cc(OC)cc2OC)ccc2ccccc21 | inconclusive: 4.61 µM [inhibitor, full curve] |
| O=C(CSc1c2c(nc3ccc(Cl)cc13)CCCC2)N1CCN(c2ccc(Cl)cc2)CC1 | inconclusive: 18.4 µM [inhibitor, single point] |
| C=CCN(c1ccccc1)S(=O)(=O)c1cccc(C(=O)Nc2nc3ccccc3[nH]2)c1 | inactive |
| CCOC(=O)c1sc(NC(=O)c2cc(-c3ccccc3C)nc3ccccc23)c(C#N)c1C | inconclusive: 16.4 µM [inhibitor, partial curve] |
| COc1ccc2[nH]c3c(C)c4ccncc4c(C)c3c2c1 | inconclusive: 18.4 µM [inhibitor, partial curve] |
| O=C(NCc1ccco1)c1nc2c(nnn2Cc2ccccc2Cl)c(=O)[nH]1 | inconclusive: 7.31 µM [inhibitor, partial curve] |
| CCOc1ccc(-c2c[n+]3c(n2-c2ccccc2)CCCCC3)cc1 | inactive |
| COc1cc(OC)c(/C=C/c2c3ccccc3cc[n+]2C)c(OC)c1 | inconclusive: 14.6 µM [inhibitor, partial curve] |
| CN(C)c1ccc(/C=C/c2sc3ccccc3[n+]2CCCCBr)cc1 | inconclusive: 18.4 µM [inhibitor, partial curve] |
| CCOc1ccc(OCc2ccc(C(=O)NN=Cc3ccc[nH]3)cc2)cc1 | inconclusive: 2.31 µM [inhibitor, full curve] |
| C[n+]1ccccc1/C=C/c1ccc([N+](=O)[O-])cc1 | inconclusive: 14.6 µM [inhibitor, partial curve] |
| CC[n+]1c(/C=C2\Sc3ccccc3N2C)ccc2cccc(C)c21 | active: 6.51 µM |
| Cc1nc2c(-c3ccccc3)c(C)[nH]n2c(=O)c1Cc1ccc(Br)cc1 | inconclusive: 10.3 µM [inhibitor, partial curve] |
| Cc1cc(C(=O)COC(=O)c2ccc(N)c([N+](=O)[O-])c2)c(C)n1-c1ccc2c(c1)OCO2 | inactive |
| Cc1ccc(Cl)cc1N1CCN(C(=O)c2cc3c(=O)n(C)c4ccccc4c3n2C)CC1 | inactive |
| COC(=O)C12OCC34C(CC5C(C)=C(O)C(=O)CC5(C)C3C(O)C1O)OC(=O)C(OC(=O)C=C(C)C)C24 (stereo not given) | inconclusive: 0.0651 µM [inhibitor, full curve] |
| CC(C)CCNC(=O)C(c1ccncc1)N(Cc1cccs1)C(=O)Cn1nnc(-c2ccc(F)cc2)n1 (stereo not given) | inconclusive: 8.2 µM [inhibitor, partial curve] |
| CCOC(=O)c1sc(NC(=O)c2cccc(S(=O)(=O)N3CCc4ccccc43)c2)c(C#N)c1C | inconclusive: 6.51 µM [inhibitor, partial curve] |
